Molecules are shown by their SMILES. In all, about 280,000 compounds went through this assay and about 180 (0.064%) were called active. Calls follow the shape of the dose curve; as a rule, active = well fitted inhibition curve with a large enough effect; inconclusive = small, poorly fitted or top-dose-only effect, or effect the other way; inactive = flat fitted curve, though single readings scatter. The list shows a part of the results, in another mix than the full data. Where a structure was tested more than once in an assay, its records may differ in their call.
Potency is read from the fitted curve at half-maximal effect.

In this assay the target is Thyroid hormone receptor beta (Homo sapiens) (UniProt P10828). Briefly: qHTS for Inhibitors of the Interaction of Thyroid Hormone Receptor and Steroid Receptor Coregulator 2. Also: nearly all actives have a fitted effect of over 50% in size. The conditions noted are these: TRbeta-SRC2 peptide binding, fluorescence polarization, receptor liganded with 1 µM T3; series mostly up to 106 µM; activity change, negative = inhibition: at the top concentration. An excerpt: NIH Molecular Libraries Probe Production Network [MLPCN]
Chain of UniProt P10828 (P10828 whole entry, looked up): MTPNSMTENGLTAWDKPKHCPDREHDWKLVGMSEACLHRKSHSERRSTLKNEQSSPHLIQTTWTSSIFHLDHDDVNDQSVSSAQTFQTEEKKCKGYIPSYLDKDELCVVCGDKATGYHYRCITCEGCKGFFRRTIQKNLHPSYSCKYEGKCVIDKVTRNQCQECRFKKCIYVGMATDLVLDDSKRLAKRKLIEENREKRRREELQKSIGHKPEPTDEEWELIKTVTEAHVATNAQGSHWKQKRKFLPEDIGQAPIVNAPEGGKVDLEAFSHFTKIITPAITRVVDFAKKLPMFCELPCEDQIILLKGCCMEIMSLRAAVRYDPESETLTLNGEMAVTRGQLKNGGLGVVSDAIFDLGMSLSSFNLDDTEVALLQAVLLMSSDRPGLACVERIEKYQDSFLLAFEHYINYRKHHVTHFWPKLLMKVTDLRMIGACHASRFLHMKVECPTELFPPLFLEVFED
NIH Chemical Genomics Center [NCGC]
Assay Provider: R. Kip Guy, St. Jude Children's Research Hospital
Thyroid receptor (TR) regulates many homeostatic processes including basal metabolism, cardiovascular function, body weight, and lipid trafficking. TR modulators are potential therapeutics for obesity and hyperlipidemias but current thyroid analogs have undesirable side effects, particularly cardiac stimulation. To identify inhibitors that specifically prevent the interaction of TR with the steroid receptor coregulator 2 (SRC2), a fluorescence polarization assay was screened. This assay detects interaction of the ligand-binding domain of human TRb with a Texas Red labeled SRC2 peptide, corresponding to a 20 amino acid region of the nuclear receptor interaction domain (Arnold et al., 2006). Small molecule inhibitors that block the interaction of TR and SRC2 are detected by a decrease in fluorescence polarization.
Arnold, L. A.; Estebanez-Perpina, E.; Togashi, M.; Shelat, A.; Ocasio, C. A.; McReynolds, A. C.; Nguyen, P.; Baxter, J. D.; Fletterick, R. J.; Webb, P.; Guy, R. K. A high-throughput screening method to identify small molecule inhibitors of thyroid hormone receptor coactivator binding. Sci STKE 2006, p 13.
NCGC Assay Protocol Summary:
For screening, 5 uL/well 0.6 uM TRb and 20 nM SRC2 Texas Red in protein buffer (20mM Tris hydrochloride, 100mM NaCl, 10% glycerol, 1mM EDTA, 0.01% NP-40, 1mM DTT, 1uM T3 and 5% DMSO) was dispensed into black solid 1536-well plates (Grenier) using a solenoid-based dispenser. Following transfer of 23 nL compound or DMSO vehicle by a pin tool, the plates were centrifuged 15 s at 1000 RPM and incubated 5 hr at ambient temperature. The plates were read by an Envision (Perkin Elmer) to detect fluorescence polarization of SRC2 Texas Red (555 nm excitation and 632 nm emission). Data were normalized to unbound (all components except TRb) and bound SRC2 Texas Red controls. In this assay, we provide % activity data for each concentration as well as potencies for the active compounds.
Keywords: NIH Roadmap, MLPCN, MLI, MLSMR, qHTS, NCGC, qHTS, thyroid hormone receptor, steroid receptor coactivator, fluorescence polarization
Background: In qHTS, concentration-response curves come from the screen itself.
For the compound `Nc1cc(C(=O)O)c(N)c2c1C(=O)c1ccccc1C2=O`, the Potency is active: 39.8 µM.

Turning to `COc1ccccc1-c1cc(C(=O)NCCc2ccccc2)no1`, the “activity change, negative = inhibition” value was inactive: 3.93%.

Regarding `S=C(S)NCCNC(=S)S`, the “activity change, negative = inhibition” value was inactive: -3.84% [at 201 µM].

As to `NC(=O)c1cc(N)ccc1N1CCCC1`, the Potency was active: 39.8 µM.

As for `O=C(COC(=O)c1c(F)cccc1F)c1ccc[nH]1`, the Potency is active: 14.1 µM.

For `COc1ccc(/C=C/C(=O)O)cc1`, the Potency was active: 25.1 µM.

Take `N[C@@H](COP(=O)(O)O)C(=O)O`: the Potency entry was “inactive”.

Consider `C[C@H]1[C@@H](O)[C@@H](C)\C=C/C=C\C=C/C=C\C=C/C=C\C=C/[C@@H](O[C@H]2O[C@@H](C)[C@@H](O)[C@@H](N)[C@@H]2O)C[C@@H]2O[C@](O)(C[C@@H](O)C[C@@H](O)[C@@H](O)CC[C@@H](O)C[C@@H](O)CC(=O)O[C@H]1C)C[C@@H](O)[C@H]2C(=O)O` (stereo in doubt), for which the “activity change, negative = inhibition” value was inactive: -15.9% [at 53 µM].

Regarding `O=C(O)CCCC[C@@H]1CCSS1`, the Potency result is “inactive”.

Regarding `CCc1ccc(NC(=O)c2cc(-c3cccs3)on2)cc1`, the “activity change, negative = inhibition” value was inactive: 3.71%.

With `C[C@@H]1[C@H](O)[C@@H](C)/C=C/C=C/C=C/C=C/C=C/C=C/C=C/[C@H](O[C@@H]2O[C@H](C)[C@@H](O)[C@H](N)[C@@H]2O)C[C@@H]2O[C@](O)(C[C@@H](O)C[C@@H](O)[C@H](O)CC[C@@H](O)C[C@@H](O)CC(=O)O[C@H]1C)C[C@H](O)[C@H]2C(=O)O`, the “activity change, negative = inhibition” value is inactive: 1.66%.

As for `COc1ccc(/C=C/C(=O)CC(=O)/C=C/c2cccc(O)c2OC)cc1O`, the “activity change, negative = inhibition” value is inactive: 27.3%.

In the case of `Nc1cc(-c2ccncc2)c[nH]c1=O`, the Potency entry is “inactive”.

For the compound `O=C(O)CCCCC1CCSS1` (stereo unspecified), the Potency entry is “inactive”.

In the case of `CCCCCCCCCCCCCCSCC(=O)O`, the Potency result is “inactive”.

For the compound `COc1ccc(C2=CC3=C(Br)C(=O)C(C)(OC(=O)C4CCCC4)C(=O)C3=CO2)cc1` (stereo unspecified), the “activity change, negative = inhibition” value was inactive: 3.89%.

Take `COc1cc(/C=C/C(=O)CC(=O)/C=C/c2ccc(O)c(OC)c2)ccc1O`: the Potency entry was “inactive”.

For `O=C1C(SCCO)=C(SCCO)C(=O)c2ccccc21`, the Potency result is “inactive”.

Turning to `CC1=C(/C=C/C(C)=C/C=C/C(C)=C\C(=O)O)C(C)(C)CCC1`, the Potency result is “inactive”.

Regarding `NCCOB(c1ccccc1)c1ccccc1`, the Potency result was “inactive”.

In the case of `Cc1ccc(C2CC(=O)Oc3cc(O)ccc32)cc1` (stereo unspecified), the “activity change, negative = inhibition” value is inactive: 0.028%.

On to `CC1=C(/C=C/C(C)=C\C=C\C(C)=C\C(=O)O)C(C)(C)CCC1`, for which the Potency entry is “inactive”.

Turning to `O=C(O)[C@H]1CN(CCCP(=O)(O)O)CCN1`, the “activity change, negative = inhibition” value is inactive: -4.18%.

`Oc1ccc(NCc2cccc(OCc3ccc(F)cc3)c2)cc1`: the Potency was active: 11.2 µM.

`CC1=C(CCC(=O)O)c2cc3nc(cc4[nH]c(cc5[nH]c(cc1n2)c(C)c5C(C)O)c(C)c4C(C)O)C(C)=C3CCC(=O)O` (stereo unspecified): the Potency was active: 35.5 µM.

Regarding `CN(C)[C@H]1C(=O)C(C(=O)NCN2CCCC2)=C(O)[C@]2(O)C(=O)C3=C(O)c4c(O)cccc4[C@@](C)(O)[C@H]3C[C@@H]12`, the “activity change, negative = inhibition” value is inactive: -6.8% [at 53 µM].

For the compound `COC1C=CO[C@@]2(C)Oc3c(C)c(O)c4c(O)c(c5c(nc6cc(C)ccn65)c4c3C2=O)NC(=O)/C(C)=C\C=CC(C)C(O)[C@@H](C)C(O)C(C)[C@@H](OC(C)=O)C1C` (stereo partly specified), the “activity change, negative = inhibition” value was inactive: -5.07%.

Turning to `CC(C)CCN(C(=O)Nc1ccccc1)C(C)c1cccs1` (stereo unspecified), the “activity change, negative = inhibition” value was inactive: 3.37%.

`CCn1c(CSc2n[nH]c(N)n2)nc2cc(C(=O)O)ccc21`: the Potency was active: 28.2 µM.

In the case of `CCCCC1=CC2=CC(=O)C(C)(OC(=O)c3cnc4ccccc4n3)C(=O)C2=CO1` (stereo unspecified), the “activity change, negative = inhibition” value is inactive: -1.36%.

Take `O=C1OC2(c3cc(I)c(O)c(I)c3Oc3c2cc(I)c(O)c3I)c2c(Cl)c(Cl)c(Cl)c(Cl)c21`: the Potency was active: 25.1 µM.

As for `CCOC(=O)N1CCN(c2cc(NCCC(=O)O)c3c4c(onc24)-c2ccccc2C3=O)CC1`, the Potency was active: 28.2 µM.

With `Cc1cc(C)cc(OCC(=O)NCCc2nc3ccccc3[nH]2)c1`, the “activity change, negative = inhibition” value was inactive: 3.69% [at 53 µM].

For `O=C(O)CCCCCN1C(=O)/C(=C\c2ccncc2)SC1=S`, the “activity change, negative = inhibition” value is inactive: 8.76%.

For the compound `O=C1c2ccc(O)c(O)c2C(=O)c2c(O)ccc(O)c21`, the Potency was active: 25.1 µM.

For the compound `Oc1c(Cl)cc(Cl)c(Cl)c1Cc1c(O)c(Cl)cc(Cl)c1Cl`, the Potency result was “inactive”.

On to `CCOc1cc(CNc2ccc(O)cc2)ccc1OCc1ccc(Cl)cc1Cl`, for which the Potency is active: 28.2 µM.

Take `CN(C(=S)Nc1cccnc1)c1ccc(O)cc1`: the Potency was active: 35.5 µM.

Turning to `CC1=C(/C=C/C(C)=C/C=C/C(C)=C/C(=O)O)C(C)(C)CCC1`, the Potency entry is “inactive”.

For `CCN(CC)c1ccc(N=Cc2cc(Br)ccc2O)cc1`, the Potency is active: 50.1 µM.

Regarding `N[C@H](COP(=O)(O)O)C(=O)O`, the “activity change, negative = inhibition” value was inactive: -4.4%.

The values are drawn from PubChem BioAssay AID1469 (National Center for Advancing Translational Sciences (NCATS), 2008).
